# This is one part of the list.
# B1: FimA-N1 (Actinomyces oris) (protein)
# chain: MHHHHHHSSGVDLGTENLYFQSNATETPNYGNIKTDATGSLVIHKHLTGGGKDIGTPTGTAQNADDKGPAVEGVVFTAYPITDINLKDPAGWDTISNLSRTGVPDSACANPAAPTLGAHQFGTPKVSPATTKEGLATITEMPVQAYLVCETTTPGDIVQKAKPFVVTIPHPNTAAGADGQWIYDVNVYPKNEAIDVDKTIQAQK
# Columns and labels:
# Assay in all cases: glycan array binding signal (z-score within array); higher = stronger binding
# Details in all cases: glycan notation: IUPAC condensed, linker removed
# [1] = molecular target: GalNAc(b1-4)GlcNAc(b1-2)Man
# Procedure, shortened: (§1)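 Negative Z-scores can be read as non-binding. The Z-score is calculated within each array and then averaged across arrays of one protein sequence at different concentrations or buffers and across linkers. Arrays, 3228 in all, were curated from the Consortium for Functional Glycomics database and kept only where the protein sequence was available.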
# [2] = molecular target: GalNAc(b1-4)GlcNAc(b1-2)Man(a1-3)[GalNAc(b1-4)GlcNAc(b1-2)Man(a1-6)]Man(b1-4)GlcNAc(b1-4)GlcNAc
# Procedure, shortened: as §1
# [3] = molecular target: GalNAc(b1-4)GlcNAc(b1-3)GalNAc(b1-4)GlcNAc
# Procedure, shortened: as §1
# [4] = molecular target: GalNAc(b1-4)GlcNAc6S
# Procedure, shortened: as §1
# [5] = molecular target: GalNAc(b1-6)GalNAc
# Procedure, shortened: as §1
# [6] = molecular target: GalNAc3S(b1-4)GlcNAc
# Procedure, shortened: as §1
# [7] = molecular target: GalNAc3S(b1-4)GlcNAc3S
# Procedure, shortened: as §1
# [8] = molecular target: GalNAc3S(b1-4)[Fuc(a1-3)]GlcNAc
# Procedure, shortened: as §1
# [9] = molecular target: GalNAc4S6S(b1-4)GlcNAc
# Procedure, shortened: as §1
# [10] = molecular target: GalNAc6S(b1-4)GlcNAc
# Procedure, shortened: as §1
# [11] = molecular target: Glc(a1-4)Glc
# Procedure, shortened: as §1
# [12] = molecular target: Glc(a1-4)Glc(a1-4)Glc(a1-4)Glc
# Procedure, shortened: as §1
# [13] = molecular target: Glc(a1-6)Glc(a1-6)Glc
# Procedure, shortened: as §1
# [14] = molecular target: Glc(a1-6)Glc(a1-6)Glc(a1-6)Glc
# Procedure, shortened: as §1
# [15] = molecular target: Glc(b1-4)Glc
# Procedure, shortened: as §1
# [16] = molecular target: Glc(b1-6)Glc
# Procedure, shortened: as §1
# [17] = molecular target: GlcA(b1-3)Gal
# Procedure, shortened: as §1
# [18] = molecular target: GlcA(b1-3)GlcNAc
# Procedure, shortened: as §1
# [19] = molecular target: GlcA(b1-6)Gal
# Procedure, shortened: as §1
# [20] = molecular target: GlcA3S(b1-3)Gal(b1-4)GlcNAc(b1-2)Man
# Procedure, shortened: as §1
# [21] = molecular target: GlcA3S(b1-3)Gal(b1-4)GlcNAc(b1-3)Gal(b1-4)Glc
# Procedure, shortened: as §1
# [22] = molecular target: GlcNAc(a1-3)Gal(b1-4)GlcNAc
# Procedure, shortened: as §1
# [23] = molecular target: GlcNAc(a1-4)Gal(b1-3)GlcNAc
# Procedure, shortened: as §1
# [24] = molecular target: GlcNAc(a1-4)Gal(b1-4)GalNAc
# Procedure, shortened: as §1
# [25] = molecular target: GlcNAc(a1-4)Gal(b1-4)GlcNAc
# Procedure, shortened: as §1
# [26] = molecular target: GlcNAc(a1-4)Gal(b1-4)GlcNAc(b1-3)Gal(b1-4)Glc
# Procedure, shortened: as §1
# [27] = molecular target: GlcNAc(a1-4)Gal(b1-4)GlcNAc(b1-3)Gal(b1-4)GlcNAc
# Procedure, shortened: as §1
# [28] = molecular target: GlcNAc(a1-4)Gal(b1-4)GlcNAc(b1-3)Gal(b1-4)GlcNAc(b1-3)Gal(b1-4)GlcNAc
# Procedure, shortened: as §1
# [29] = molecular target: GlcNAc(a1-4)Gal(b1-4)GlcNAc(b1-3)Gal(b1-4)[Fuc(a1-3)]GlcNAc(b1-3)Gal(b1-4)[Fuc(a1-3)]GlcNAc
# Procedure, shortened: as §1
# [30] = molecular target: GlcNAc(a1-6)Gal(b1-4)GlcNAc
# Procedure, shortened: as §1
# [31] = molecular target: GlcNAc(b1-2)Gal(b1-3)GalNAc
# Procedure, shortened: as §1
# [32] = molecular target: GlcNAc(b1-2)Man(a1-3)[GlcNAc(b1-2)Man(a1-6)]Man(b1-4)GlcNAc(b1-4)GlcNAc
# Procedure, shortened: as §1
# [33] = molecular target: GlcNAc(b1-2)Man(a1-3)[GlcNAc(b1-2)Man(a1-6)]Man(b1-4)GlcNAc(b1-4)[Fuc(a1-6)]GlcNAc
# Procedure, shortened: as §1
# [34] = molecular target: GlcNAc(b1-2)Man(a1-3)[GlcNAc(b1-4)][GlcNAc(b1-2)Man(a1-6)]Man(b1-4)GlcNAc(b1-4)GlcNAc
# Procedure, shortened: as §1
# [35] = molecular target: GlcNAc(b1-2)Man(a1-3)[GlcNAc(b1-4)][GlcNAc(b1-2)Man(a1-6)]Man(b1-4)GlcNAc(b1-4)[Fuc(a1-6)]GlcNAc
# Procedure, shortened: as §1
# [36] = molecular target: GlcNAc(b1-2)[GlcNAc(b1-4)]Man(a1-3)[GlcNAc(b1-2)Man(a1-6)]Man(b1-4)GlcNAc(b1-4)GlcNAc
# Procedure, shortened: as §1
# [37] = molecular target: GlcNAc(b1-2)[GlcNAc(b1-4)]Man(a1-3)[GlcNAc(b1-4)][GlcNAc(b1-2)Man(a1-6)]Man(b1-4)GlcNAc(b1-4)GlcNAc
# Procedure, shortened: as §1
# [38] = molecular target: GlcNAc(b1-2)[GlcNAc(b1-4)]Man(a1-3)[GlcNAc(b1-4)][GlcNAc(b1-2)[GlcNAc(b1-6)]Man(a1-6)]Man(b1-4)GlcNAc(b1-4)GlcNAc
# Procedure, shortened: as §1
# [39] = molecular target: GlcNAc(b1-2)[GlcNAc(b1-4)]Man(a1-3)[GlcNAc(b1-4)][GlcNAc(b1-2)[GlcNAc(b1-6)]Man(a1-6)]Man(b1-4)GlcNAc(b1-4)[Fuc(a1-6)]GlcNAc
# Procedure, shortened: as §1
# [40] = molecular target: GlcNAc(b1-2)[GlcNAc(b1-6)]Man(a1-6)[GlcNAc(b1-2)Man(a1-3)]Man(b1-4)GlcNAc(b1-4)GlcNAc
# Procedure, shortened: as §1
# [41] = molecular target: GlcNAc(b1-2)[GlcNAc(b1-6)]Man(a1-6)[GlcNAc(b1-2)Man(a1-3)]Man(b1-4)GlcNAc(b1-4)[Fuc(a1-6)]GlcNAc
# Procedure, shortened: as §1
# [42] = molecular target: GlcNAc(b1-2)[GlcNAc(b1-6)]Man(a1-6)[GlcNAc(b1-4)][GlcNAc(b1-2)Man(a1-3)]Man(b1-4)GlcNAc(b1-4)GlcNAc
# Procedure, shortened: as §1
# [43] = molecular target: GlcNAc(b1-3)Fuc
# Procedure, shortened: as §1
# [44] = molecular target: GlcNAc(b1-3)Gal
# Procedure, shortened: as §1
# [45] = molecular target: GlcNAc(b1-3)Gal(b1-3)GalNAc
# Procedure, shortened: as §1
binder,measurement,setting,value
B1,glycan array binding signal (z-score),[1],-0.366
same,glycan array binding signal (z-score),[2],0.025
same,glycan array binding signal (z-score),[3],-0.177
same,glycan array binding signal (z-score),[4],-0.089
same,glycan array binding signal (z-score),[5],-0.173
same,glycan array binding signal (z-score),[6],0.036
same,glycan array binding signal (z-score),[7],-0.16
same,glycan array binding signal (z-score),[8],-0.281
same,glycan array binding signal (z-score),[9],-0.173
same,glycan array binding signal (z-score),[10],0.08
same,glycan array binding signal (z-score),[11],-0.147
same,glycan array binding signal (z-score),[12],-0.353
same,glycan array binding signal (z-score),[13],-0.196
same,glycan array binding signal (z-score),[14],-0.176
same,glycan array binding signal (z-score),[15],-0.344
same,glycan array binding signal (z-score),[16],-0.022
same,glycan array binding signal (z-score),[17],0.041
same,glycan array binding signal (z-score),[18],0.157
same,glycan array binding signal (z-score),[19],-0.119
same,glycan array binding signal (z-score),[20],-0.364
same,glycan array binding signal (z-score),[21],-0.014
same,glycan array binding signal (z-score),[22],-0.349
same,glycan array binding signal (z-score),[23],-0.336
same,glycan array binding signal (z-score),[24],-0.382
same,glycan array binding signal (z-score),[25],-0.509
same,glycan array binding signal (z-score),[26],-0.076
same,glycan array binding signal (z-score),[27],-0.357
same,glycan array binding signal (z-score),[28],-0.152
same,glycan array binding signal (z-score),[29],0.476
same,glycan array binding signal (z-score),[30],-0.193
same,glycan array binding signal (z-score),[31],-0.284
same,glycan array binding signal (z-score),[32],0.007
same,glycan array binding signal (z-score),[33],-0.346
same,glycan array binding signal (z-score),[34],-0.095
same,glycan array binding signal (z-score),[35],-0.505
same,glycan array binding signal (z-score),[36],-0.244
same,glycan array binding signal (z-score),[37],-0.313
same,glycan array binding signal (z-score),[38],-0.325
same,glycan array binding signal (z-score),[39],-0.556
same,glycan array binding signal (z-score),[40],-0.228
same,glycan array binding signal (z-score),[41],0.206
same,glycan array binding signal (z-score),[42],-0.496
same,glycan array binding signal (z-score),[43],-0.329
same,glycan array binding signal (z-score),[44],-0.237
same,glycan array binding signal (z-score),[45],0.195
